# Experimental data from PubChem BioAssay AID1457 (National Center for Advancing Translational Sciences (NCATS), 2008).
# Out of some 210,000 compounds screened, about 730 (0.35%) were called active. This list was built around the results that the source calls inconclusive (neither active nor inactive); the mix of calls is not that of the screen. The call rests on the fitted dose curve; in most records, active means well fitted inhibition curve with a large enough effect; inconclusive means small, poorly fitted or top-dose-only effect; inactive means no such curve, though single readings can be large or run the other way. Potencies of inconclusive entries are doubtful fits and often do not repeat.
# Assay: qHTS Assay for Identifying the Cell-Membrane Permeable IMPase Inhibitors: Potentiation with Lithium; further: nearly all actives have a fitted effect of over 50% in size;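 on activity, negative = IMPase inhibition: plate controls were basal vehicle for no effect and high inhibitor control for full effect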
# Details: CHO-M1 cells, IP1 TR-FRET (IP-One), carbachol + lithium; series mostly up to 59.4 µM; activity, negative = IMPase inhibition: at the top concentration
# How it was run: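 Test compounds were applied to CHO-M1 cells previously cultured for 16–30 h at 2000 per well. A small lithium amount accompanied them; after 30 min at 37C, IP1 was quantified by TR-FRET.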
# Potency means the concentration at half of the fitted maximal effect.
Compound,Potency,"activity, negative = IMPase inhibition"
COc1cc(/C=C(\C#N)c2nc3ccccc3s2)ccc1OCC(=O)Nc1ccccc1,"inconclusive: 28.2 µM [inhibitor, single point]",
COc1cccc(CNC(=O)CSc2ccc(-c3cccs3)nn2)c1,"inconclusive: 3.55 µM [inhibitor, full curve]",
O=C(CN1CCOCC1)Nc1nc2ccc(Br)cc2s1,,inactive: 36.4% [at 38.3 µM]
CCOc1cc2nc(-c3ccc(OC)c(OC)c3)nc(N3CCOCC3)c2cc1OC,"inconclusive: 28.2 µM [inhibitor, single point]",
Cc1cc(N2CCOCC2)nc2ccc(NC(=O)C3CCC(C)CC3)cc12 (centres undefined),"inconclusive: 22.4 µM [inhibitor, single point]",
O=C(Nc1nnc(-c2ccccc2)s1)c1ccc(F)cc1,"inconclusive: 28.2 µM [inhibitor, single point]",
O=P(O)(OCc1ccccc1)OCc1ccccc1,"inconclusive: 11.2 µM [inhibitor, partial curve]",
CC(NC(=O)OC(C)(C)C)C(=O)Oc1ccc2ccc(=O)oc2c1 (centres undefined),"inconclusive: 28.2 µM [inhibitor, single point]",
CCCCn1c(=S)[nH]c2c(oc3ccc(Cl)cc32)c1=O,active: 10 µM,
O=c1c(Cl)c(N2CCN(S(=O)(=O)c3ccccc3)CC2)cnn1-c1ccccc1,"inconclusive: 22.4 µM [inhibitor, single point]",
Cc1ccc(NC(=O)CSc2ccc(-c3ccc4c(c3)OCO4)nn2)cc1F,"inconclusive: 22.4 µM [inhibitor, single point]",
Cc1c(N2C(=O)c3ccc4c5c(ccc(c35)C2=O)CC4)c(=O)n(-c2ccccc2)n1C,"inconclusive: 7.08 µM [inhibitor, partial curve]",
O=c1c(Br)c(Br)cnn1-c1ccccc1,"inconclusive: 28.2 µM [inhibitor, single point]",
CC(C)(C)CC(=O)NC(=S)NCc1ccccc1,,inactive: 2.95%
Cc1ccc(C2CC(=O)N3CN(c4ccc(Br)cc4)CSC3=C2C#N)o1 (centres undefined),"inconclusive: 17.8 µM [inhibitor, single point]",
COc1ccc(CCNC(=O)c2cc3c(C)nccc3[nH]c2=O)cc1OC,"inconclusive: 28.2 µM [inhibitor, single point]",
COc1ccc(NC(=O)COC(=O)COc2ccc(Br)cc2)cc1,"inconclusive: 6.31 µM [inhibitor, partial curve]",
O=C(N/N=C/c1cccnc1)c1cccc(S(=O)(=O)Nc2cccc(Cl)c2)c1,"inconclusive: 5.01 µM [inhibitor, single point]",
CN1CCCc2cc3c(C(F)(F)F)cc(=O)oc3nc21,active: 10 µM,
CC1=C(C(=O)OCC2CCCO2)C(c2ccc(C)cc2)C2=C(CCCC2=O)N1 (centres undefined),,inactive: 20.6%
COC(=O)Cc1c(C)c2c(O)cc(C)cc2oc1=O,"inconclusive: 28.2 µM [inhibitor, single point]",
COc1ccc(NC(=S)N2CCN(c3ccc([N+](=O)[O-])cc3)CC2)cc1OC,,inactive: 1.44%
CCOC(=O)c1nn(-c2cccc(C)c2)c2nc(-c3ccccc3)c(C#N)c(=O)n12,active: 3.98 µM,

Compound,Potency,"activity, negative = IMPase inhibition"
CCOC(=O)c1sc2ncn(C(C)C(=O)OCC)c(=O)c2c1C (centres undefined),,inactive: 30.5% [at 38.3 µM]
CN(C(=O)CSC1=NC2C(N=N1)c1cc(Br)ccc1N2C)C1CCCCC1 (centres undefined),"inconclusive: 28.2 µM [inhibitor, single point]",
O=C(Cc1ccccc1)Nc1nc2ccc(Cl)cc2c2nc(-c3ccco3)nn12,"inconclusive: 28.2 µM [inhibitor, single point]",
CCOc1ccc(CN(C(=O)c2oc3ccccc3c2C)C2CCS(=O)(=O)C2)cc1 (centres undefined),"inconclusive: 0.355 µM [inhibitor, partial curve, poor fit]",
CS(=O)(=O)Nc1ccc(-c2n[nH]c(=S)n2-c2ccccc2)cc1,"inconclusive: 25.1 µM [inhibitor, single point]",
CCCSC1=C(C#N)C(c2cccs2)C(C(=O)Nc2ccccc2)=C(C)N1 (centres undefined),"inconclusive: 28.2 µM [inhibitor, single point]",
CC(C)CCCCCCNC(=S)Nc1ccc(S(=O)(=O)N2CCOCC2)cc1,,inactive: 12.7%
Cc1ccc(-c2cn3cc(C)ccc3n2)cc1,"inconclusive: 11.2 µM [inhibitor, single point]",
CCCCSc1c(C)c2cc3c(cc2[nH]c1=O)OCO3,"inconclusive: 12.6 µM [inhibitor, single point]",
Cc1ccc(CNC(=O)CSc2nc3ccccc3c3nc(C)nn23)cc1,"inconclusive: 31.6 µM [inhibitor, partial curve]",
O=C(NC1CCCCC1)c1nn2c(C(F)(F)F)cc(-c3ccco3)nc2c1Br,"inconclusive: 10 µM [inhibitor, partial curve]",
C=CCn1c(SCC(=O)Nc2sccc2C#N)nc2sc(C)c(C)c2c1=O,"inconclusive: 28.2 µM [inhibitor, single point]",
COc1cc(OC)cc(N2CC(C)(C)C2=O)c1,"inconclusive: 5.01 µM [inhibitor, single point]",
CC(=O)C1=C(O)C(=O)N(c2ccc(C)cc2)C1c1ccccn1 (centres undefined),"inconclusive: 7.08 µM [inhibitor, partial curve]",
COc1ccc2[nH]cc(CCNc3ncnc4ccc(-c5ccc6c(c5)OCO6)cc34)c2c1,"inconclusive: 11.2 µM [inhibitor, single point]",
COc1cccc(-c2cc3nc(-c4ccccc4)cc(N4CCC5(CC4)OCCO5)n3n2)c1,active: 11.2 µM,
O=C(CN1CCCCC1)Nc1cccc(Cl)c1,"inconclusive: 3.16 µM [inhibitor, single point]",
O=C(CSc1nc2ccccc2s1)NC(=O)NCc1ccco1,"inconclusive: 12.6 µM [inhibitor, single point]",
CCCOc1ccc(-c2nnc(-c3cccs3)o2)cc1,"inconclusive: 28.2 µM [inhibitor, single point]",
CC(=O)Nc1ccc(NC(=O)C(=O)c2cn(CC(=O)N3CCCCC3)c3ccccc23)cc1,"inconclusive: 12.6 µM [inhibitor, single point]",
O=C1CC(c2ccc(F)cc2)Cc2nc(NCc3ccco3)ncc21 (centres undefined),"inconclusive: 28.2 µM [inhibitor, single point]",
CCOc1ccccc1NC(=O)CN(c1ccc(C)cc1)S(=O)(=O)c1c(C)noc1C,,inactive: 41.9% [at 38.3 µM]
COc1ccc(CC(=O)Nc2ccc(-c3nc4cc(C)ccc4o3)c(O)c2)cc1OC,"inconclusive: 12.6 µM [inhibitor, single point]",

Compound,Potency,"activity, negative = IMPase inhibition"
CC(C)c1nc2sc3c(=O)[nH]c(=S)[nH]c3c2c2c1CCC2,"inconclusive: 22.4 µM [inhibitor, single point]",
Cc1ccc2[nH]c(C)cc(=S)c2c1,"inconclusive: 28.2 µM [inhibitor, single point]",
CCOc1ccc2nc(NC(=O)CSc3nc(-c4ccccc4)c(C#N)c(=O)[nH]3)sc2c1,"inconclusive: 11.2 µM [inhibitor, partial curve]",
CCc1cccc(C)c1NC(=O)COC(=O)CNS(=O)(=O)/C=C/c1ccccc1,,inactive: 6.09%
COc1cc(C(=O)Nc2nc3ccc(C)cc3s2)ccc1OCc1c(C)noc1C,"inconclusive: 22.4 µM [inhibitor, single point]",
CN1CCN(c2c(F)cc3c(=O)c(C(=O)O)cn4c3c2SCC4)CC1,"inconclusive: 17.8 µM [inhibitor, single point]",
COc1ccc(C2CC(c3ccccc3)=NN2c2ccc(S(N)(=O)=O)cc2)cc1 (centres undefined),"inconclusive: 15.8 µM [inhibitor, single point]",
O=C1CC(c2ccco2)Cc2c1cnn2-c1nc2ccccc2s1 (centres undefined),active: 12.6 µM,
O=C(Cn1ncc(Cl)c(Cl)c1=O)c1ccc(Cl)cc1,,inactive: -1.69%
Nc1nc(SCc2ccc(F)cc2)ns1,"inconclusive: 5.01 µM [inhibitor, single point]",
Clc1ccc(OCc2nn3c(-c4ccccc4)nnc3s2)c(Cl)c1,,inactive: 1.89%
COc1ccc(CCNC(=O)CSc2ncnc3c2oc2ccccc23)cc1OC,"inconclusive: 28.2 µM [inhibitor, single point]",
CN(C)c1ccc(-c2nnc(-c3cccs3)o2)cc1,"inconclusive: 10 µM [inhibitor, partial curve]",
O=C(COc1ccc2ccc(=O)oc2c1)N1CCc2ccccc21,,inactive: -15.8%
CCc1c(C(=O)O)[nH]c2ccc(Br)cc12,active: 10 µM,
COc1ccc(-c2csc(NC(=O)c3ccc(N4C(=O)CCC4=O)cc3)n2)cc1OC,"inconclusive: 28.2 µM [inhibitor, single point]",
COc1ccc(CC(=O)Nc2ccc(N3CCN(c4ccc(OC)cc4)CC3)c(C#N)c2)cc1,"inconclusive: 28.2 µM [inhibitor, single point]",
Cc1ccc(-c2c(C#N)c(N)n(-c3ccc(C)cc3)c(=O)c2C#N)cc1,"inconclusive: 28.2 µM [inhibitor, single point]",
O=C(Nc1ccc2oc(-c3cccc(F)c3)nc2c1)c1ccccc1F,"inconclusive: 28.2 µM [inhibitor, single point]",
Cc1ccc(S(=O)(=O)N(C(=O)c2ccncc2)c2ccc3oc4c(c3c2)CCCC4)cc1[N+](=O)[O-],,inactive: 0.825%
CCOc1ccccc1-n1c(SCC(=O)N2CCCc3ccccc32)nnc1-c1cccnc1,,inactive: 0.792%
Cc1cc(=O)oc2cc(OCC#N)ccc12,"inconclusive: 22.4 µM [inhibitor, single point]",
CCn1c(=O)c(C2=NS(=O)(=O)c3ccccc3N2)c(O)c2ccccc21,"inconclusive: 28.2 µM [inhibitor, single point]",
